# Laboratory results reported in PubChem BioAssay (Tox21).
# Values joined by “and” are separate entries in the source; they are usually repeats but may differ in a detail not shown here. Equal values may be shown once. This list was built around the results that the source calls inconclusive (neither active nor inactive); the mix of calls is not that of the screen. Potencies beside an inconclusive call are fits to weak or partial responses and may not hold up. Some structures have more than one record in an assay (separate samples or runs), and their calls can disagree. Active and inactive are the calls of the source. Unless noted, the call rests on the fitted dose curve; in most records, active means well fitted curve in the direction sought with a large enough effect in the repeat runs; inconclusive means weak or mixed curves; inactive means no such curve, though single readings can be large; an effect the other way counts as inactive or inconclusive.
# Key:
# [1] = qHTS assay for small molecule agonists of the antioxidant response element (ARE) signaling pathway (AID 743202; active means well fitted activation curve with a large enough effect in the signal ratio in the repeat runs, not every such curve was filed as active; inconclusive means weak or mixed curves, or effect the other way; inactive means no such curve, though single readings can be large or run the other way; the % refers to the signal ratio; on activation: on the % scale 0 is the no-effect control and ±100 the full control effect); details: HepG2 ARE-bla reporter, beta-lactamase FRET, 16 h
# Method in brief: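 After 16 hours of compound treatment at 37 C, HepG2 cells with a stably integrated ARE-driven beta-lactamase reporter were loaded 2 hours at room temperature with LiveBLAzer B/G FRET substrate and fluorescence intensity measured.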
# [2] = qHTS assay for small molecule agonists of the antioxidant response element (ARE) signaling pathway - cell viability counter screen (AID 743203; calls by dose curve; further: nearly all actives have a fitted effect of over 55% in size); details: ARE-bla HepG2 viability, CellTiter-Glo luminescence, 16 h; viability change, negative = cytotoxic: at 73.3 µM (top of the series)
# Method in brief: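 Viability counter screen: CellTiter-Glo luminescence, read after 30 min at room temperature, in ARE-bla HepG2 wells. Compound exposure lasted 16 h at 37C/5% CO2, following a 5 h pre-incubation of the cells after plating.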
# [3] = qHTS assay for small molecule activators of the heat shock response signaling pathway - cell viability counter screen (AID 743209); details: HSE-bla HeLa viability, CellTiter-Glo luminescence, 5 h; activity change, negative = cytotoxicity: at 62.6 µM (top of the series) unless noted; further: nearly all actives have a fitted effect of over 50% in size
# Method in brief: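 Cytotoxicity counter screen run in the same wells as the heat-shock bla reporter assay: HeLa HSE-bla cells, 5 h compound exposure at 37 C, viability read by CellTiter-Glo luminescence.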
# [4] = qHTS assay for small molecule activators of the heat shock response signaling pathway (AID 743210; active means well fitted activation curve with a large enough effect in the signal ratio in the repeat runs, with a control signal flat, not every such curve was filed as active; inconclusive means weak or mixed curves; the % refers to the signal ratio; on activation: on the % scale 0 is the no-effect control and ±100 the full control effect); details: HeLa HSE-bla reporter, beta-lactamase ratio, 5 h; activation: at 62.6 µM (top of the series) unless noted
# Method in brief: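 Compound exposure lasted 5 h at 37 C in HeLa cells carrying a heat-shock-element-driven beta-lactamase reporter. Read-out: fluorescence intensity after 2.5 h room-temperature loading with LiveBLAzer B/G FRET substrate.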
# [5] = qHTS assay to identify small molecule antagonists of the peroxisome proliferator-activated receptor delta (PPARd) signaling pathway - cell viability counter screen (AID 743213); details: PPARd-bla HEK293H viability, CellTiter-Glo luminescence, 17 h; viability change, negative = cytotoxic: at 62 µM (top of the series) unless noted; further: nearly all actives have a fitted effect of over 50% in size
# Method in brief: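 PPARd-bla HEK293H cells (3000/well) got compound plus 300 nM L165041 agonist for 17 h at 37 C. Viability in the same wells came from CellTiter-Glo luminescence after 30 min at room temperature.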
# [6] = target: Bile acid receptor (Homo sapiens) (UniProt Q96RI1); experiment: qHTS assay to identify small molecule antagonists of the farnesoid-X-receptor (FXR) signaling pathway (AID 743217; active means well fitted inhibition curve with a large enough effect in the signal ratio in the repeat runs, not every such curve was filed as active; inconclusive means weak or mixed curves, or effect the other way; inactive means no such curve, though single readings can be large or run the other way; the % refers to the signal ratio; on activity change, negative = inhibition: on the % scale 0 is the no-effect control and ±100 the full control effect); details: HEK293T FXR-UAS-bla, beta-lactamase ratio, CDCA-stimulated, 16 h
# Method in brief: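 Antagonist mode: chenodeoxycholic acid at 50 uM final stimulates a UAS-driven beta-lactamase reporter in HEK 293T FXR-bla cells during 16 h, 37C compound exposure. Read-out is FRET substrate fluorescence after 2 h at room temperature.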
# [7] = qHTS assay to identify small molecule agonists of the peroxisome proliferator-activated receptor delta (PPARd) signaling pathway - cell viability counter screen (AID 743211); details: PPARd-bla HEK293H viability, CellTiter-Glo luminescence, 17 h; activity change, negative = cytotoxicity: at 62.6 µM (top of the series); further: nearly all actives have a fitted effect of over 55% in size
# Method in brief: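 Tox21 library compounds, delivered in DMSO, were incubated 17 h with PPARd-bla HEK293H cells; cytotoxicity was taken from CellTiter-Glo luminescence read 30 min after reagent addition.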
# [8] = target: Peroxisome proliferator-activated receptor delta (Homo sapiens) (UniProt Q03181); experiment: qHTS assay to identify small molecule antagonists of the peroxisome proliferator-activated receptor delta (PPARd) signaling pathway (AID 743215; active means well fitted inhibition curve with a large enough effect in the signal ratio in the repeat runs, not every such curve was filed as active; inconclusive means weak or mixed curves, or effect the other way; inactive means no such curve, though single readings can be large or run the other way; the % refers to the signal ratio;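 further: cells stimulated with agonist L165041 at 300 nM final during compound exposure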; on ratio activity, negative = inhibition: on the % scale 0 is the no-effect control and ±100 the full control effect); details: HEK293H PPARd-UAS-bla, beta-lactamase FRET ratio, antagonist, 17 h; ratio activity, negative = inhibition: at 62 µM (top of the series) unless noted
# Method in brief: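 Agonist L165041 (300 nM final) added with compound to PPARd-bla HEK293H UAS-bla reporter cells; 17 h incubation at 37 C. Read-out: LiveBLAzer FRET substrate, 2 h at room temperature, fluorescence intensity.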
# [9] = target: Peroxisome proliferator-activated receptor delta (Homo sapiens) (UniProt Q03181); experiment: qHTS assay to identify small molecule agonists of the peroxisome proliferator-activated receptor delta (PPARd) signaling pathway (AID 743212; calls by dose curve;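 further: HEK293H cells with PPARd UAS beta-lactamase reporter GeneBLAzer system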); details: HEK293H PPARd-UAS-bla, beta-lactamase FRET ratio, 17 h; activation: at 62.6 µM (top of the series) unless noted
# Method in brief: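 Beta-lactamase reporter readout: a ratiometric FRET signal from the LiveBLAzer substrate after 2 h at room temperature. Compound exposure at 37 °C in PPARδ-bla HEK293H cells driven by an upstream activator sequence.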
# [10] = activation: at 73.3 µM (top of the series) unless noted
# [11] = activity change, negative = inhibition: at 62.6 µM (top of the series) unless noted
# Potency means the concentration at half of the fitted maximal effect; tags describe the fitted curve by direction and shape or compound fluorescence and quenching.
# Sequence of UniProt Q96RI1 (Q96RI1 whole entry, looked up): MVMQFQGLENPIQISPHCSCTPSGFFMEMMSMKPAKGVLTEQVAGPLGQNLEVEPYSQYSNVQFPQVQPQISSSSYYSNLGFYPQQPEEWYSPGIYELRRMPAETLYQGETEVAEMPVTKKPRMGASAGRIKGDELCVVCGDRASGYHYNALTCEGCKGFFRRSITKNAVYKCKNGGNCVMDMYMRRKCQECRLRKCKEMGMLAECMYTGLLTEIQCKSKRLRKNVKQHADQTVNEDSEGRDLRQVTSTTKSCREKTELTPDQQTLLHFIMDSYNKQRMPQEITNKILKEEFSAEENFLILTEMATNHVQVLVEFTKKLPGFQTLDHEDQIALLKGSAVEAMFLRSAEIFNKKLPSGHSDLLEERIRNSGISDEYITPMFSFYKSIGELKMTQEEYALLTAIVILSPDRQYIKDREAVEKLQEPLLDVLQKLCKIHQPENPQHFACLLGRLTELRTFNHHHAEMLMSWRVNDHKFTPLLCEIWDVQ
# Sequence of UniProt Q03181 (Q03181 whole entry, looked up): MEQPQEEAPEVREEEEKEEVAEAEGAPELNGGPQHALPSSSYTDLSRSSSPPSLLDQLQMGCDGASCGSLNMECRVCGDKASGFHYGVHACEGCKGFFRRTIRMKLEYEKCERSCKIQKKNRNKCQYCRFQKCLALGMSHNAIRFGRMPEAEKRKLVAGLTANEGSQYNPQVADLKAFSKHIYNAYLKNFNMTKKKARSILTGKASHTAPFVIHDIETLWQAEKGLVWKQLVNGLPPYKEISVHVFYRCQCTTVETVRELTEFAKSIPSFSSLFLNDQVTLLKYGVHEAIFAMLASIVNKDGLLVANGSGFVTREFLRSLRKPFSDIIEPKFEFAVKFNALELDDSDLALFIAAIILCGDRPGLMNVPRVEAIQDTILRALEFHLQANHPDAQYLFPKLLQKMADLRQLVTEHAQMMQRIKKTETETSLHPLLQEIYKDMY
smiles,measurement,setting,value
O=c1oc2ccccc2c(O)c1C(CC(O)c1ccc(-c2ccc(Br)cc2)cc1)c1ccccc1 (stereo unspecified),Potency,[1]; [10],inconclusive: 25.8 µM
same,activation,[1]; [10],inconclusive: 8.7%
same,Potency,[2],inconclusive: 64.9 µM [cytotoxic]
same,Potency,[3],"inconclusive: 0.0266 µM [cytotoxic, single point]"
same,Potency,[4],inconclusive: 48.1 µM and inconclusive: 29.8 µM [activator]
CCC(C)(C)c1ccc(O)cc1,activation,[1]; at 73.3 µM (top of the series),inconclusive: 15.1%
same,activation,[1]; at 94.8 µM (top of the series),inconclusive: 25.9%
same,Potency,[2],"inconclusive: 61.1 µM [cytotoxic, partial curve, poor fit]"
same,Potency,[4],inconclusive: 60 µM and inactive
same,Potency,[5],"inconclusive: 39.3 µM [cytotoxic] and inconclusive: 7.5 µM [cytotoxic, single point]"
same,"activity change, negative = inhibition",[6]; [11],inconclusive: -32.2% [at 81.1 µM]
same,"activity change, negative = inhibition",[6]; at 62.6 µM (top of the series),inactive: -7% and inactive: 9.62%
O=S1(=O)OC(c2cc(Br)c(O)c(Br)c2)(c2cc(Br)c(O)c(Br)c2)c2ccccc21,Potency,[1]; [10],inactive
same,Potency,[2],"inconclusive: 25 µM [cytotoxic, partial curve]"
same,Potency,[3],"inconclusive: 44.9 µM [cytotoxic, partial curve]"
same,Potency,[7],"inconclusive: 15.9 µM [cytotoxic, partial curve]"
same,Potency,[8],inactive
CCOC(=O)C(C)OC(=O)c1cc(Oc2ccc(C(F)(F)F)cc2Cl)ccc1[N+](=O)[O-] (stereo unspecified),Potency,[1]; [10],"inconclusive: 13.7 µM [rising, partial curve, poor fit]"
same,activation,[1]; [10],inconclusive: -1.32%
same,Potency,[3],"inconclusive: 9.72 µM [cytotoxic, partial curve, poor fit]"
same,Potency,[4],inconclusive: 51.6 µM and inconclusive: 47.1 µM
same,Potency,[7],"inconclusive: 54.7 µM [cytotoxic, partial curve, poor fit] and inconclusive: 24.5 µM [cytotoxic, partial curve, poor fit]"
same,"ratio activity, negative = inhibition",[8],inconclusive: -34%
ClC=C(Cl)Cl,Potency,[1]; [10],inactive
same,Potency,[2],inactive
O=C(O)COc1ccc(Cl)cc1,activation,[1]; [10],inconclusive: -1.15%
same,Potency,[2],inactive
ClC1C(Cl)C(Cl)C(Cl)C(Cl)C1Cl (stereo unspecified),activation,[1]; [10],inconclusive: 16.6% [at 94.8 µM] and inconclusive: 16.3% [at 94.8 µM]
same,activation,[1]; at 73.3 µM (top of the series),inactive: -0.548% [middle of 5 runs]
same,Potency,[4],"inconclusive: 55.4 µM [falling, partial curve, poor fit]"
same,Potency,[7],"inconclusive: 56.1 µM [cytotoxic, single point]"
same,Potency,[6]; [11],"inconclusive: 54.9 µM [rising, partial curve, poor fit]"
CN1C[C@H](C(=O)N[C@]2(C)O[C@@]3(O)[C@@H]4CCCN4C(=O)[C@H](Cc4ccccc4)N3C2=O)C=C2c3cccc4[nH]cc(c34)C[C@H]21,Potency,[1]; [10],"inconclusive: 30.8 µM [falling, partial curve]"
same,activation,[1]; [10],inconclusive: 9.24% [at 34.3 µM]
same,Potency,[3],inactive
same,Potency,[5],"inactive and inconclusive: 4.06 µM [cytotoxic, partial curve, poor fit]"
same,Potency,[6]; [11],inconclusive: 55.2 µM [inhibitor]
same,"activity change, negative = inhibition",[6]; [11],inconclusive: -18.8% [at 29.1 µM]
O=C1C=CC(=O)C=C1,Potency,[1]; [10],"inconclusive: 24.5 µM [rising, full curve]"
same,activation,[1]; [10],inconclusive: -0.687%
O=P(OCC(Br)CBr)(OCC(Br)CBr)OCC(Br)CBr (stereo unspecified),Potency,[1]; [10],inconclusive: 78 µM
same,activation,[1]; [10],inconclusive: -89.5%
same,Potency,[2],"inconclusive: 69.5 µM [cytotoxic, single point]"
same,Potency,[4],inconclusive: 35.5 µM
same,activation,[4],inconclusive: 4.14% [at 81.1 µM]
same,Potency,[7],"inconclusive: 44.2 µM [cytotoxic, partial curve]"
same,"activity change, negative = cytotoxicity",[7],inconclusive: -36.3% [cytotoxic]
same,Potency,[9],inconclusive: 55.7 µM
same,Potency,[5],"inconclusive: 49.6 µM [cytotoxic, partial curve] and inconclusive: 13.1 µM [cytotoxic]"
same,Potency,[8],inconclusive: 55.7 µM
same,"ratio activity, negative = inhibition",[8],inconclusive: -33.2%
c1ccc(P(c2ccccc2)c2ccccc2)cc1,Potency,[1]; [10],"inconclusive: 54.5 µM [rising, partial curve]"
same,activation,[1]; [10],inconclusive: -2.53% [at 94.8 µM]
same,Potency,[4],active: 3.34 µM
Cc1ccc2c(c1N)C(=O)c1ccccc1C2=O,Potency,[1]; [10],"inconclusive: 8.54 µM [rising, full curve]"
same,activation,[1]; [10],inconclusive: 15.4%
same,Potency,[4],inactive
same,Potency,[7],"inconclusive: 4.9 µM [cytotoxic, partial curve, poor fit]"
same,Potency,[5],inconclusive: 21.6 µM [cytotoxic]
same,Potency,[6]; [11],"inconclusive: 34.7 µM [inhibitor, partial curve]"
same,"activity change, negative = inhibition",[6]; [11],inconclusive: -16.3%
CCOC(=O)CC(SP(=S)(OC)OC)C(=O)OCC (stereo unspecified),Potency,[1]; [10],active: 6.86 µM and inconclusive: 26.6 µM
same,Potency,[2],"inconclusive: 0.154 µM [cytotoxic, full curve, poor fit]"
same,Potency,[3],"inconclusive: 0.545 µM [cytotoxic, full curve, poor fit]"
same,Potency,[7],"inconclusive: 8.71 µM [cytotoxic, full curve, poor fit] and inconclusive: 11.9 µM [cytotoxic, single point]"
same,"ratio activity, negative = inhibition",[8],inconclusive: -29.7% [at 80.4 µM]
